Source: PubChem BioAssay AID488969 (Vanderbilt High Throughput Screening Facility, 2010)
Whole data set: some 110,000 compounds, median “z-score” near -0.1, cut for the highest 2% near 2. This is one part of the list. Calls of active or inactive are those of the source.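 The calls were made as follows: active = z-score in the third read window above 3 or below -3; inactive = the rest.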

Target: Metabotropic glutamate receptor 8 (Rattus norvegicus) (UniProt P70579)
Assay: rat mGluR8 modulators via GIRK flux, primary screen, cell-based, thallium flux, HTS (AID 488969)
Details: HEK293 rat mGluR8, GIRK (G protein-gated inwardly rectifying potassium channel) thallium flux, FluoZin2; at 10 µM; stronger effect = higher value; submaximal glutamate (EC20) added with thallium

Chain of UniProt P70579 (P70579 whole entry, looked up): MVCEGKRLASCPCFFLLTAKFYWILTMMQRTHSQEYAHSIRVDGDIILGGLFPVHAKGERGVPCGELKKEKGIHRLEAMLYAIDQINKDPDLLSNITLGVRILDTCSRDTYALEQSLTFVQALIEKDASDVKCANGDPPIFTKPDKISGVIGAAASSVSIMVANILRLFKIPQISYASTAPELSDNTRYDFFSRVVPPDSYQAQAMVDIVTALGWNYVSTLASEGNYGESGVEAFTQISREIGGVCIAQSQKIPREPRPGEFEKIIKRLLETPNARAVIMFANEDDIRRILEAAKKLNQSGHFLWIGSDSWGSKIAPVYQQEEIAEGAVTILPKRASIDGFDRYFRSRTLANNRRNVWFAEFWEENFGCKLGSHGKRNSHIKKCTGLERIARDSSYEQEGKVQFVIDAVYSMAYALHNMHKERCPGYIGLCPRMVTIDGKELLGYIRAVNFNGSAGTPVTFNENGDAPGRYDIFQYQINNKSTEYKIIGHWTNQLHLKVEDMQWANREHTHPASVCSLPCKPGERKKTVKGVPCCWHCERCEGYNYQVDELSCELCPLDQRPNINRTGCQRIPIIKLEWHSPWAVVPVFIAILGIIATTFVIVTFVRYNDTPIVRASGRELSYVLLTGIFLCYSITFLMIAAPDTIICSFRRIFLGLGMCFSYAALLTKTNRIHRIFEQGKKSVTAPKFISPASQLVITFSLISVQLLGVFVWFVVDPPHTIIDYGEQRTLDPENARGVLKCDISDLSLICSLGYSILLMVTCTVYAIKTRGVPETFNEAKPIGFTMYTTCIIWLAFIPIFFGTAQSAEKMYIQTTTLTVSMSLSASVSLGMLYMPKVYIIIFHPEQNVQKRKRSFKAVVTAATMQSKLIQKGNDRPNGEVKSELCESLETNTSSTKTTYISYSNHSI

Row | Structure (SMILES) | z-score
1 | O=C1CCN=C(Nc2ccc(F)cc2)N1Cc1ccccc1 | -0.265
2 | Cc1cc(C)nc(CC(N)=O)n1 | 0.0131
3 | COc1ccc(C(=O)Nn2c(SCC(=O)NCC3CCCO3)nc3ccccc3c2=O)cc1 (stereo not given) | 0.00105
4 | O=C(Nc1ccc(NC(=O)C2CCCCC2)nc1)c1ccco1 | 0.221
5 | COc1ccc(NS(=O)(=O)c2cccc(C(=O)OCC(=O)Nc3cc(C)on3)c2)cc1 | 0.186
6 | CCc1ccc(NC(=O)CNC(=O)c2cn(-c3ccccc3OC)c(=O)c3ccccc23)cc1 | -1.25
7 | CCN(CC)C(=O)c1cc2cc([N+](=O)[O-])ccc2s1 | 0.53
8 | Cc1cccc(C)c1OCCSc1n[nH]c(N)n1 | 0.141
9 | CN(CC(=O)NC1CCCCC1)S(=O)(=O)c1cccc2cccnc12 | -0.35
10 | CS(=O)(=O)N(Cc1ccccc1)c1ccc(C(=O)NC2CCCCC2O)cc1 (stereo not given) | 0.252
11 | O=C(Nc1ccccc1)c1cnc(-c2ccccc2)nc1-c1ccccc1 | 0.428
12 | O=C(O)C1CCC(=O)N1C1c2ccccc2Oc2ccccc21 (stereo not given) | -0.398
13 | COc1ccccc1NC(=O)COC(=O)c1ccc2c(c1)nc(C)n2-c1ccccc1 | -0.283
14 | COCCn1nnnc1C(c1ccccn1)N1CCN(c2cc(Cl)ccc2C)CC1 (stereo not given) | -0.577
15 | COc1cccc(NC(=O)CCC(=O)NCc2ccco2)c1 | -0.0294
16 | CC(C)c1ccc(NC(=O)COC(=O)c2c[nH]c(=O)[nH]c2=O)cc1 | -0.346
17 | COCCn1c(Cc2ccccc2)nnc1SCc1nc2ccccc2c(=O)[nH]1 | -0.0784
18 | CCC(C)(C)NC(=O)/C=C/c1cccs1 | -0.306
19 | COc1cc(OC)cc(C(=O)N[C@H](C(=O)OCC(=O)NC(C)c2ccccc2)C(C)C)c1 (stereo not given in full) | -0.103
20 | CCCCCCCCCC[n+]1cccc(C(=O)N(CC)CC)c1 | -0.257
21 | COc1ccc(-c2ccc(C3C(C#N)=C(N)Oc4n[nH]c(C)c43)o2)cc1 (stereo not given) | -0.191
22 | COc1cccc(-c2nn(C)c3sc(C(=O)N4CCOCC4)cc23)c1 | -0.172

Row | Structure (SMILES) | z-score
23 | CC(C)(C)c1ccc(C(=O)Nc2ccc(Cl)cc2)cc1 | -0.752
24 | C[n+]1cnn2c1SCC1(COC1)C2 | 0.148
25 | O=C(NC1c2ccccc2-c2ccccc21)N1CCCCC1 | 0.253
26 | O=C(O)CSc1ncnc2sc3c(c12)CCC3 | 0.715
27 | OCC#CCSc1nnc(-c2ccccc2Br)o1 | -0.633
28 | COc1ccc(C(C)=O)cc1COC(=O)CNC(=O)c1ccc(Cl)cc1 | 0.143
29 | O=C(N/N=C\c1c(O)ccc2ccccc12)c1ccc(S(=O)(=O)N2CCCCC2)cc1 | -0.225
30 | CC1(C)CC(NC(=O)C23CCC(C)(/C(=N/O)C2)C3(C)C)CC(C)(C)N1 (stereo not given) | -0.753
31 | CCOC(=O)/C(C#N)=C\C1=C(N2CCCC2)CC(C)(CC)OC1 (stereo not given) | -0.0463
32 | COc1cc(/C=N/N=C(/N)c2nonc2N)cc(Br)c1OCc1cccc(C)c1 | 0.0652
33 | Cc1ccc2c(Cl)cc(Cl)c(OCC(=O)Nc3cc(C)on3)c2n1 | 0.0628
34 | Cc1cc(C)n(-c2cc(N3CCOCC3)ncn2)n1 | 0.706
35 | CC(NS(=O)(=O)c1ccc(CCC(=O)NCc2cccnc2)cc1)c1ccccc1 (stereo not given) | 0.0386
36 | Cc1ccc(N2C(=O)CS/C2=C(\C(Cl)=C(Cl)Cl)[N+](=O)[O-])cc1 | -0.494
37 | Cn1cnnc1SCC(=O)N1N=C2/C(=C/c3ccco3)CCCC2C1c1ccco1 (stereo not given) | 0.28
38 | CCc1nc(Sc2nnnn2-c2ccccc2)c2c3c(sc2n1)CCCC3 | -0.413
39 | CCc1ccccc1NC(=S)N(Cc1cccnc1)Cc1ccco1 | -0.132
40 | Oc1ccccc1-c1nc2cnccn2c1Nc1ccc2c(c1)OCCO2 | -0.132
41 | COc1ccc(N2CCN(Cc3cc(OC)c(O)c([N+](=O)[O-])c3)CC2)cc1 | -0.284
42 | [O-]/C(=C(\C(=S)Nc1cccc2ccccc12)[n+]1ccccc1)c1ccc2c(c1)OCCO2 | 0.312
43 | COc1cc(NC(=S)NC(=O)c2ccc(F)cc2)ccc1NC(=O)c1ccco1 | -0.305
44 | Cc1cc(C)cc(NC(=O)CSCc2nc3c(nnn3Cc3ccc(F)cc3)c(=O)[nH]2)c1 | -0.0802

Row | Structure (SMILES) | z-score
45 | Cn1c(CNS(=O)(=O)c2ccc(Cl)cc2)n[nH]c1=S | 0.121
46 | COc1ccc(N2CCC(CNS(=O)(=O)c3cccc(C(F)(F)F)c3)C2)cc1 (stereo not given) | 0.746
47 | CC(CN(C(N)=O)c1ccccc1O)C(=O)O (stereo not given) | 0.238
48 | COc1ccc2c(c1)c(C(O)CN1CCC(Cc3ccccc3)CC1)c(C)n2C (stereo not given) | -0.0548
49 | Cc1ccc(C)n1-c1ccc(N2CCOCC2)cc1 | 0.179
50 | CCOc1ccc(Nc2nc3c(c(=O)[nH]2)CCCC3)cc1 | 0.341
51 | Cc1cc(C(F)F)n2ncc(C(=O)O)c2n1 | 0.566
52 | CCOC(=O)c1sc(NC(=O)C2CC=CCC2C(=O)O)nc1C (stereo not given) | -0.0679
53 | CC(C)c1ccc2[nH]c(O)c(N=NC(=O)c3cccc(S(=O)(=O)N4CCCCC4)c3)c2c1 | -0.156
54 | CCN(CC)S(=O)(=O)c1cc(C(=O)Oc2cccc(-c3cnc4ccccc4n3)c2)ccc1OC | -0.111
55 | CCOC(=O)Cn1c(S(=O)(=O)Cc2ccc(F)cc2)nc(-c2ccccc2)c1-c1ccccc1 | -0.277
56 | CCOC(=O)c1cnc(SCC(=O)N2CCc3ccccc32)nc1N | 0.604
57 | CC(C)COc1ccc(/C(=N/O)c2ccccc2)cc1 | 0.298
58 | O=C(CCc1nc2ccccc2c(=O)[nH]1)OCc1cccc(C(F)(F)F)c1 | 1.22
59 | O=C(CN1CCN(S(=O)(=O)c2ccc3ccccc3c2)CC1)N1CCc2ccccc2C1 | 0.0837
60 | COc1ccc(-c2cc(=O)n(CCC#N)[nH]2)cc1 | -0.346
61 | Cn1cc(CNC(=O)Nc2ccc3c(c2)OCO3)cn1 | -0.149
62 | Cc1cc(=O)oc2cc(OCC(=O)N/N=C/c3cc([N+](=O)[O-])ccc3O)ccc12 | 0.213
63 | O=C1CC(SC(=Nc2ccccc2)Nc2ccccc2)C(=O)N1c1cccc(Cl)c1 (stereo not given) | -0.104
64 | COc1ccc(OC)c(NS(=O)(=O)c2ccc(NC(=O)c3ccc(NS(C)(=O)=O)cc3)cc2)c1 | 0.00942
65 | CC(C)(C)SCCNC(=O)c1ccc(NS(C)(=O)=O)cc1 | -0.0865
66 | Cc1ccccc1OCCCC(=O)NCc1ccco1 | 0.25

Row | Structure (SMILES) | z-score
67 | O=C(CN1C(=O)c2ccccc2C1=O)Nc1nnc(C2CCCO2)s1 (stereo not given) | 0.703
68 | CCOC(=O)C1CCN(S(=O)(=O)c2ccc3[nH]c(=O)oc3c2)CC1 | 0.146
69 | CCn1c(CNc2ccc(Cl)cc2)nnc1SCC(=O)OC1CCCCC1 | -0.678
70 | NC(=O)c1nsc(C(=O)N(CC(=O)NCc2ccc3c(c2)OCO3)C2CCCCC2)c1N | -0.00881
71 | CCn1c(-c2cc(C3CC3)nc3ccccc23)n[nH]c1=S | -0.258
72 | COc1ccc(COC(=O)c2n[nH]c3ccccc23)cc1F | -1.22
73 | CN(C)S(=O)(=O)c1cccc(C(=O)NCC2CCCO2)c1 (stereo not given) | -0.16
74 | COc1ccc(NC(=O)COC(=O)c2c3c(nc4ccccc24)CCCC3)cc1Cl | 0.142
75 | CCCn1c(SCC(=O)Nc2ccccc2C(=O)OCC)nc2c1c(=O)n(C)c(=O)n2C | -0.41
76 | C/C(=C/C(=O)N1CCc2ccccc21)C(=O)O | 0.0648
77 | C=CCn1c(SCc2ccccc2C#N)nnc1-c1ccccc1O | -0.419
78 | O=C1c2ccccc2C(=O)N1CCCCSc1nnc2ccccn12 | 0.111
79 | CCOC(=O)C1CCCN(S(=O)(=O)c2ccc(C)cc2)C1 (stereo not given) | -0.394
80 | CCc1ccc2[nH]c(=O)c(C(c3nnnn3CC3CCCO3)N3CCN4CCCC4C3)cc2c1 (stereo not given) | 0.281
81 | COc1ccc(-c2cc(-c3cccs3)c(C#N)c(SCC(=O)NCc3ccccc3)n2)cc1 | -0.0113
82 | COc1ccc(CCCC(=O)Nc2ccccc2F)cc1 | 0.0152
83 | CC(C)(C)OC(=O)NCCc1nnc(SCC(N)=O)o1 | -0.0953
84 | Cc1cccc2c(-c3ccccc3)cc(=O)[nH]c12 | -0.146
85 | COC(=O)c1c(C)[nH]c(C(=O)CSc2ccc(Cl)cc2)c1C | 0.107
86 | CC1(C)Cc2c(C#N)c(SCCOc3ccccc3)nc(N3CCOCC3)c2CO1 | -0.481
87 | CCN1C(=O)/C(=C2/Sc3ccc(OC)cc3N2C)SC1=Nc1ccc(C(C)=O)cc1 | -0.0997
88 | O=C(O)c1ccc(OCCn2ccnc2)cc1 | -0.124

Row | Structure (SMILES) | z-score
89 | COc1cccc(C(=O)NC2CCN(C(=O)N3c4ccccc4Sc4ccccc43)CC2)c1 | -0.497
90 | O=c1[nH]cc([N+](=O)[O-])cc1Br | -0.212
91 | Cc1ccc(/C=N/NC(=O)c2nc3nc(C)cc(C)n3n2)cc1 | 0.431
92 | Clc1ccc2c(NCc3ccccn3)ncnc2c1 | 0.0515
93 | COc1ccc(CCNc2oc(-c3ccccc3OC)nc2C#N)cc1OC | -0.803
94 | O=C(CSc1cnc2ccccc2n1)c1ccc(F)cc1 | -0.268
95 | COc1ccc(N(C(=O)c2ccco2)S(=O)(=O)c2cccc([N+](=O)[O-])c2)cc1 | 0.0908
96 | O=C(c1ccc(COc2ccc3c(c2)CCC3)o1)N1CCN(c2ccccc2)CC1 | 0.0784
97 | CCOc1ccc(OCC(=O)Nc2ccc(OC)cc2)cc1 | -0.476
98 | CCNc1c(C(=O)O)ccc2c1C(=O)c1ccccc1C2=O | -1.03
99 | Cc1ccc(-c2nnc(SCC(=O)N3CCOCC3)nc2-c2ccc(C)cc2)cc1 | -0.549
100 | Cc1ccc(F)cc1NC(=O)c1cccc2nccnc12 | -0.781
101 | COc1ccc(Nc2nc(N)nc(SCc3nnc(C)s3)n2)cc1 | 0.0393
102 | Cc1scc(C(=O)N/N=C/c2ccc(OCC(C)C)cc2)c1C | -0.145
103 | Cc1ccc(S(=O)(=O)Nc2cc(C(C)C)c(O)cc2C)cc1 | -0.907
104 | CCOC(=O)/C(=N\Nc1ccc(Cl)cc1)c1csc(Nc2ccccc2)n1 | -0.206
105 | O=C(Cn1nc(-c2ccccc2)ccc1=O)NCCN1CCN(Cc2ccccc2)CC1 | 0.374
106 | Cc1nn(C)cc1/C=N\NC(=O)c1ccc2c(c1)c(C)c(C)n2Cc1ccccc1 | 0.097
107 | Cc1ccc(Cl)cc1N1CCN(C(=O)Cc2c(C(=O)O)[nH]c3ccccc23)CC1 | -0.139
108 | COC(=O)[C@H](C)NC(=O)Nc1cc(Cl)ccc1C | -0.0399
109 | S=C1Nc2ccccc2Sc2ccc(Cl)cc21 | active: 4.1
110 | Cc1cc(C(=O)Nc2cccnc2)no1 | 0.595
